Measurements taken from the supplement of paper PMC9334596.
Where “and” joins values, the source holds several entries; their conditions need not be identical. Identical values can stand only once. The full ranking holds about 5,300 compounds; the median of “PER2::LUC luminescence relative to vehicle control” is about 0.96, and the highest 2% start at about 1.3. The list shows a part of the results.

Test system: mPer2Luc MEF
Assay: PER2::LUC luminescence relative to vehicle control (fold of vehicle); higher = higher PER2::LUC reporter signal
Conditions: 10 µM
How it was run: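 Mouse embryonic fibroblasts carrying the mPer2Luc reporter were seeded at ~3000 cells per well in 384-well plates, 48 h before compounds from commercial libraries were added at 10 μM. Cells were grown in DMEM with 10% FBS at 37 °C and 5% CO2. Luminescence was read with the ONE-Glo luciferase assay system 24 h and 30 h after treatment, followed by an alamarBlue viability assay. The value is PER2::LUC luminescence as fold of vehicle control.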

SMILES	PER2::LUC luminescence (time after treatment 24 h)	PER2::LUC luminescence (time after treatment 30 h)
CC(C)CC(NC(=O)C(Cc1ccccc1)NC(=O)CNC(=O)C(C)NC(=O)C(N)Cc1ccc(O)cc1)C(=O)O (stereo unspecified)	1.03	0.904
OC[C@@H]1CCCN2CCCC[C@H]12	1	0.945
COc1cc(OC)c2c(c1)O[C@H](c1ccc(OC)c(OC)c1)[C@@H](O)C2	1.03	0.964
C=CC[C@]1(O)CC[C@H]2[C@@H]3CCC4=CC(=O)CCC4=C3C=C[C@@]21C	0.87	0.949
CC(Cc1ccc(O)cc1)NCC(O)c1cc(O)cc(O)c1 (stereo unspecified)	1.02 and 0.816	0.984 and 1.04
C/C(=C\c1csc(C)n1)[C@@H]1C[C@@H]2O[C@]2(C)CCC[C@H](C)[C@H](O)[C@@H](C)C(=O)C(C)(C)[C@@H](O)CC(=O)O1	0.519	0.483
C=CCN=C=S	0.561	0.919
C=C[C@H]1CN2CC[C@H]1C[C@@H]2[C@@H](O)c1ccnc2ccccc12	1.01 and 0.754	1.06 and 1.03
Cn1cnc(CCN)c1	0.826	0.66
C1CCc2nnnn2CC1	1.08 and 1 and 0.978	1 and 1.02 and 0.951
CNCC(O)c1ccc(O)cc1 (racemic)	0.891	0.939
Cc1ccccc1-n1c(Cn2cnc3c(N)ncnc32)nc2cccc(C)c2c1=O	1.08	0.983
CN(N=O)c1ccc(O)c(O)c1	0.808	0.976
C=CCN1CCC2(C)c3cc(O)ccc3CC1C2C (racemic)	0.981	0.906
CCCN1CCC[C@@H]2Cc3nc(N)ncc3C[C@H]21	1.04 and 0.908	0.943 and 0.869
C[C@]12CC[C@@H](O)C[C@@H]1CC[C@@H]1[C@@H]2CC[C@]2(C)C(=O)CC[C@@H]12	0.936	0.913
COc1ccc2c(c1)[C@]13CCCC[C@@H]1[C@H](C2)N(C)CC3	0.702 and 0.654 and 0.636	0.83 and 0.727 and 0.743
CC1=NCCc2c1[nH]c1cc(O)ccc21	0.94	0.935
C=C[C@H]1CN2CC[C@H]1C[C@H]2[C@H](O)c1ccnc2ccccc12	0.985 and 0.929	0.986 and 1.01
Cc1cccc(C(C)c2c[nH]cn2)c1C (stereo unspecified)	1.1	1.09

SMILES	PER2::LUC luminescence (time after treatment 24 h)	PER2::LUC luminescence (time after treatment 30 h)
C[C@H]1O[C@@H](O[C@H]2[C@@H](O)C[C@H](O[C@H]3[C@@H](O)C[C@H](O[C@H]4CC[C@@]5(C)[C@H](CC[C@@H]6[C@@H]5CC[C@]5(C)[C@@H](C7=CC(=O)OC7)[C@@H](O)C[C@]65O)C4)O[C@@H]3C)O[C@@H]2C)C[C@H](O)[C@@H]1O	0.658	0.649
O=C1C=CC(=O)c2c(O)cccc21	0.933	0.779
CN(C(=O)Cc1ccc(Cl)c(Cl)c1)[C@H](CN1CCCC1)c1ccccc1	0.654	0.655
COC[C@H]1OC(=O)c2coc3c2[C@@]1(C)C1=C(C3=O)[C@@H]2CCC(=O)[C@@]2(C)C[C@H]1OC(C)=O	0.877	0.875
CNNC	0.952	0.931
Oc1cc2c(cc1O)[C@H]1c3ccccc3CN[C@@H]1CC2	0.855	0.8
Clc1cnc(Oc2ccc(Oc3ncc(Cl)cc3Cl)cc2)c(Cl)c1	1.07	1.01
CNCCc1ccc(O)c(O)c1	0.939	0.915
CC(C)[C@H](NC(=O)[C@H](CCC(=O)O)NC(=O)[C@H](Cc1ccccc1)NC(=O)[C@@H](C)NC(=O)[C@@H](N)Cc1ccc(O)cc1)C(=O)N[C@H](C(=O)NCC(N)=O)C(C)C	1.11	0.98
NC(N)=NOCC[C@H](N)C(=O)O	1.1 and 1.18	0.992 and 1.16
N[C@@H](Cn1oc(=O)[nH]c1=O)C(=O)O	0.982 and 0.881	0.97 and 0.793
O=S(=O)(CC1CS1)c1ccc(Oc2ccccc2)cc1 (stereo unspecified)	1.19	1.04
C[C@H](Cc1ccc(OCC(=O)O)cc1)NC[C@H](O)c1cccc(Cl)c1	0.906	0.891
CN1[C@@H]2CCC[C@H]1CC(=O)C2	0.978	0.882
C[N+]1(CCC(C(N)=O)(c2ccccc2)c2ccccc2)CCCCC1	1.05	1.16
S=C(NC1CCCCC1)N1CCC(c2cnc[nH]2)CC1	0.954	0.996
CN1[C@@H]2CC(O)C[C@H]1[C@@H]1O[C@@H]12 (stereo partly specified)	1.02 and 1.19	1.02 and 1.1
O=C([O-])Cc1ccccc1.[Na+]	0.961	0.91
CCN(CC)C(=O)NC1CC2c3cccc4[nH]cc(c34)CC2N(C)C1 (stereo unspecified)	0.846	0.986
C[C@]12CC[C@H]3[C@@H](CC[C@]4(O)C[C@@H](O)CC[C@]34C=O)[C@@]1(O)CC[C@@H]2C1=CC(=O)OC1	0.934	0.862

SMILES	PER2::LUC luminescence (time after treatment 24 h)	PER2::LUC luminescence (time after treatment 30 h)
O=c1[nH]c2ccccc2n1CCCN1CCC(n2c(=O)[nH]c3cc(Cl)ccc32)CC1	0.941	0.864
O=C([O-])c1ccccc1-c1c2cc(Br)c(=O)cc-2oc2[c]([Hg+])c([O-])c(Br)cc12.[Na+].[Na+].[OH-]	0.935	0.877
N#C/C(=C\c1cccc(O)c1)C(=O)O	0.973	0.923
COC(=O)C1=CO[C@@H](C)[C@H]2CN3CC[C@]4(C(=O)Nc5ccccc54)[C@@H]3C[C@H]12	0.938	0.896
CC(C)[N+](C)(CCC(C(N)=O)(c1ccccc1)c1ccccc1)C(C)C	0.541	0.804
CC(C)=CCCC1=CC(=O)c2c(O)ccc(O)c2C1=O	1.21	0.954
CC1=C[C@@H]2c3cccc4[nH]cc(c34)C[C@H]2N(C)C1	0.969	0.856
C#C[C@]1(O)CC[C@H]2[C@@H]3CCC4=CC(=O)CC[C@]4(C)[C@H]3CC[C@@]21C	0.91	1.09
C=CCN1CC[C@]23c4c5ccc(O)c4O[C@H]2/C(=N/NC(=O)c2ccccc2)CC[C@@]3(O)[C@H]1C5	1.13	0.994
CC(C)CC(N(C)C)C1(c2ccc(Cl)cc2)CCC1 (stereo unspecified)	0.971 and 1.2	0.955 and 1.01
C[C@H]1CCC[C@@H](O)CCCCCc2cc(O)cc(O)c2C(=O)O1	0.9	0.909
COc1ccc2c3c1O[C@H]1CC(=O)C=C[C@@]31CCN(C)C2	1.03	0.993
NCC(CC(=O)O)c1ccc(Cl)s1 (racemic)	1.04	0.985
COc1ccc2c(c1)c(CCN1CCOCC1)c(C)n2C(=O)c1cccc(Cl)c1Cl	1.08	1.02
Nc1ncn[nH]1	0.997	0.956
COc1ccc(CN2CCNCC2)c(OC)c1OC	1.01	0.903
c1ccc2c(N3CCNCC3)cccc2c1	0.719	0.663
CC[C@H]1CN2CC[C@H]1C[C@@H]2[C@@H](O)c1ccnc2ccc(OC)cc12	0.976	0.953
